Consider 62 compounds from PubChem BioAssay AID485344 (National Center for Advancing Translational Sciences (NCATS), 2010).

About 6,900 (2%) of roughly 340,000 compounds were called active. Cut-off read from the data, not from the text of the source: active = inhibition above about 30%; inactive = below that, where a call was filed. Only a part is listed here, and it is no random draw. The source gives no active or inactive call for entries shown without one.

For the assay, the target named is D(2) dopamine receptor (Homo sapiens) (UniProt P14416). The assay can be described thus: HTS Assay for Allosteric Antagonists of the Human D2 Dopamine Receptor: Primary Screen for Antagonists. Note: 0% is about no effect. Conditions: HEK293 TREx D2 cells, calcium flux, dopamine EC80; at 10 µM; stronger effect = higher value. In a few lines: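 Calcium flux kinetic readout in an inducible HEK293 TREx D2 line plated overnight at 30 C. After 180 s compound exposure, an EC80 dopamine challenge follows with another 180 s kinetic read to detect antagonism.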
UniProt P14416, sequence (P14416 whole entry, looked up): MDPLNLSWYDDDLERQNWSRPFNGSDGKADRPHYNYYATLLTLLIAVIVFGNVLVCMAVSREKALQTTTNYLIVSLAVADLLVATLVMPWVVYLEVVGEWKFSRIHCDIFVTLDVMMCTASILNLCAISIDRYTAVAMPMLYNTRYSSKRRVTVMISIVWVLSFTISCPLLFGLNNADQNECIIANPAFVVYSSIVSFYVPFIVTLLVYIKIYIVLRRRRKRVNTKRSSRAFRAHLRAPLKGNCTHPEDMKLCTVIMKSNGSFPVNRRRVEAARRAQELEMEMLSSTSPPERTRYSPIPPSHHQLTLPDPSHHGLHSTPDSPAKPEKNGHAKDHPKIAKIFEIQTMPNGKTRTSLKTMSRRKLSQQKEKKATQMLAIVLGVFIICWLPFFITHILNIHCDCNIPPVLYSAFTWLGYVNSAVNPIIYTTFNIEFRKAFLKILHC
Background: Calcium flux is commonly read through the fluorescence of an indicator in the cells.
Take `O=C1Nc2ccc(S(=O)(=O)Nc3ccccc3O)c3cccc1c23`: the inhibition – broadly, the drop in the measured response relative to a control, in per cent – is -4.38%. `CCOc1ccccc1Nc1cc(-c2ccccc2)nc(C)n1`: the inhibition is -4.48%. Consider `COc1ccc(NC(=O)CSc2nnc(-c3cccs3)o2)cc1`, for which the inhibition stood at 16.4%. The figure for `Cc1cc(C)cc(OC(=O)c2snnc2C)c1` is 18.8%; for `COc1cccc(-n2ccnc2SCC(=O)Nc2ccccc2)c1` it is active: 50.4%; for `CC(NC(=O)Nc1ccccc1C(F)(F)F)c1c(-n2cccc2)sc2c1CCCC2` (configuration not stated) it is 15%. The figure for `CCOC(=O)C1(CCOc2ccccc2)CCN(S(=O)(=O)N(C)C)CC1` is active: 42.9%. The figure for `COc1ccccc1CNC(=O)Cn1ncc2c3ccccc3n(Cc3ccccc3C)c2c1=O` is 2.07%; for `COc1ccc(NCc2cc3cc4c(cc3n(CC(=O)Nc3ccc(C)cc3)c2=O)OCO4)cc1` it is -2.75%; for `CCOC(=O)c1ccc(NS(=O)(=O)c2ccc(Br)s2)cc1` it is -1.4%. For the compound `COc1ccccc1NC(=O)CSc1oc(-c2cccs2)nc1S(=O)(=O)c1ccc(Br)cc1`, the inhibition was -11.9%. Regarding `CN(C(=O)CSc1nc2c(c(=O)[nH]1)CCCC2)c1ccccc1`, the inhibition came out at 2.38%. The figure for `CCOc1ccccc1NC(=O)C1CCN(S(=O)(=O)c2ccccc2)CC1` is -9.13%; for `CCOc1ccc(S(=O)(=O)N2CCN(c3c(C)cccc3C)CC2)c2ccccc12` it is 0.953%; for `COc1ccc(-c2nc(SCC(=O)Nc3ccc4c(c3)OCO4)c(-c3ccc(OC)cc3)[nH]2)cc1` it is 5.82%. Consider `Cc1cccc(NC(=O)CSc2nc3c([nH]c4ccccc43)c(=O)n2C)c1C`, for which the inhibition is -27.7%. The figure for `CCOc1ccc(-n2c(Cc3cc(=O)[nH]c(=O)[nH]3)nnc2SCC)cc1` is active: 39.7%. The figure for `C=CCC1(O)C(=O)N2C(=C1C(=O)N1CCOCC1)c1ccccc1CC2(C)C` (configuration not stated) is active: 44.8%; for `COC(=O)c1[nH]c2c(c1C)C(=O)CC(c1ccc(C)cc1)C2` (configuration not stated) it is active: 32.4%. The figure for `CCN(CC)CCOc1nnc(-c2ccc(C)cc2)c2ccccc12` is active: 35.6%; for `CCOc1ccc(NC(=O)c2ccc(-c3nc(COc4ccccc4)c(C)o3)cc2)cc1` it is -10.2%; for `CC(NC(=O)C1CCN(C(=O)c2ccc(F)cc2)CC1)c1ccc(-n2ccnc2)cc1` (configuration not stated) it is active: 31%. For the compound `O=C(CC12CC3CC(CC(Br)(C3)C1)C2)NC1CCCC1`, the inhibition is active: 33.7%. As for `Cc1c(CN2CC[C@@H](N3CCN(c4ccccn4)CC3)[C@H](O)C2)[nH]c2ccc(F)cc12`, the inhibition was active: 51.4%. The figure for `O=C(NCCc1csc(-c2cccc(F)c2)n1)c1cccs1` is 14%. Turning to `Cc1cccc(NC(=S)NC2CCN(Cc3ccccc3)CC2)c1C`, the inhibition was active: 93.9%.

Take `O=C(Cc1ccccc1)Nc1sc2c(c1C(=O)Nc1ccc(Cl)cc1)CCCC2`: the inhibition is -18.6%. The figure for `CCc1c(C)nc2nncn2c1Nc1ccc(C(C)C)cc1` is 19.8%. For the compound `Cc1ccc(CNC(=O)c2ccc(-n3cnc4cccnc43)cc2)cc1`, the inhibition was found to be 4.27%. The figure for `O=C(c1ccc2c(c1)N(Cc1ccccc1F)C(=O)c1ccccc1S2=O)N1CCN(c2ccccc2)CC1` (configuration not stated) is 5.85%. As for `CCc1ccc(NC(=O)Cn2c3ncccc3c(=O)n2-c2ccc(C)c(C)c2)cc1`, the inhibition came to 18.7%.

On to `Cc1ccc(NC(=O)/C(C#N)=C/c2cc(C)n(-c3ccc(F)cc3)c2C)cc1C`, for which the inhibition turned out to be 3.83%. Regarding `CCOC(=O)c1ccc(NC(=O)c2ncn(-c3ccccc3)n2)cc1`, the inhibition stood at 7.05%. Take `CC(NC(=O)Nc1cc(Cl)ccc1Cl)c1c(-n2cccc2)sc2c1CCCC2` (configuration not stated): the inhibition came to 0.717%. The figure for `COc1ccc(N2CCN(C(=O)CCn3c(=O)c4cccn4c4cccnc43)CC2)cc1` is -20.8%; for `CCN(CC)c1ccc(C(=O)N2CCC(c3c[nH]c4ccccc34)(c3c[nH]c4ccccc34)CC2)cc1` it is 9.97%. The figure for `COCCn1c(=O)[nH]c2cc(C(=O)NCCN3CCN(c4ccccc4)CC3)ccc2c1=O` is active: 144%; for `O=C(NC1CCN(Cc2ccccc2)CC1)c1ccc(Cn2c(=O)c3ccccc3n(Cc3ccccc3)c2=O)cc1` it is 12.1%; for `COc1cc(/C=C2\SC(=N)N(c3ccc(F)cc3)C2=O)ccc1O` it is active: 55.8%. Regarding `Cc1ccc(NC(=O)N2CCc3cc(S(=O)(=O)N4CCC(C)CC4)ccc32)cc1C`, the inhibition came out at 5.92%. In the case of `CCOC(=O)c1ccc(Nc2ncnc3c2cnn3-c2cccc(Cl)c2)cc1`, the inhibition is -7.42%. The figure for `CCN(C(=O)c1cc2c(s1)-c1ccccc1OC2)c1cc(Cl)ccc1OC` is 3.32%; for `FC(F)(F)c1cccc(N2CCN(CC3CC=CCC3)CC2)c1` (configuration not stated) it is active: 73.2%. `O=S(=O)(NCCS(=O)(=O)N1CCN(c2ccccc2F)CC1)c1ccc(Cl)cc1`: the inhibition amounted to 7.92%. The figure for `CCCCN1CCCc2cc(CN(CCCN3CCOCC3)C(=O)Nc3ccc(OCC)cc3)ccc21` is 8.89%. Take `O=C(NCc1cccc(Cl)c1)C(=O)Nc1ccc2nc3n(c(=O)c2c1)CCCCC3`: the inhibition amounted to 7.12%. The figure for `COc1ccc(C)cc1Nc1c2c(nc3nc(-c4cccs4)nn13)CCCC2` is -17.9%; for `COc1cccc(CN2CCc3nc(SCC(=O)Nc4ccccc4)[nH]c(=O)c3C2)c1` it is 15.8%; for `COc1cc(Nc2nc3ccccc3c3nnc(C)n23)cc(OC)c1` it is 4.51%. The figure for `CCN(CC)S(=O)(=O)c1ccc2c(c1)N(CC(=O)N1CCN(c3ccccc3F)CC1)C(=O)CO2` is -0.669%; for `CC1CCCN(CCCOc2ccc(Br)cc2Cl)C1` (configuration not stated) it is active: 36.5%; for `Cc1ccc2c(=O)c(C(=O)c3cccc(Cl)c3)cn(CC(=O)NCc3ccc(F)cc3)c2n1` it is 1.82%. The figure for `C=Cc1ccc(CN2C(=O)N(c3cccc(Cl)c3)S(=O)(=O)c3ccccc32)cc1` is -22.4%. For the compound `COc1ccc(C(=O)n2nc(-c3ccco3)nc2NCc2cccs2)cc1`, the inhibition was -6.95%. The figure for `COc1ccc(-n2ncc3c(NCCC4=CCCCC4)ncnc32)cc1` is -1.45%; for `Cc1noc(/C=C/c2ccco2)c1S(=O)(=O)N1CCC(C(=O)Nc2ccc(F)c(Cl)c2)CC1` it is -1.22%. Consider `Cc1ccccc1-c1nc(CS(=O)(=O)CC(=O)NCc2cccc(Cl)c2)c(C)o1`, for which the inhibition was 11.2%.

Turning to `Cc1ccc(N2CC(C(=O)Nc3ccc(Br)cc3)CC2=O)cc1` (configuration not stated), the inhibition was determined as 13.5%. The figure for `CCC1=Nc2cc(C(=O)NC3CCCC3)ccc2Sc2ccc(Br)cc21` is -5.1%.

On to `O=C(/C=C/c1ccc(F)cc1)Nc1nc2n(n1)C(c1ccc(Cl)cc1)C=C(c1ccccc1)N2` (configuration not stated), for which the inhibition came to 7.98%. With `COc1ccc(Cn2c(C(=O)O)c(CNC3CCCCCC3)c3ccc(OC)cc32)cc1`, the inhibition is -5.18%. Take `Cc1ccc2sc(N3CCN(C(=O)CCS(=O)(=O)c4ccc(F)cc4)CC3)nc2c1C`: the inhibition came out at 16.6%.
